This is an account of results in PubChem BioAssay AID1508624 (National Center for Advancing Translational Sciences (NCATS), 2021).

The structures appear in SMILES notation. Among all 48,000 compounds or so, about 120 (0.25%) were called active. About 4% were inconclusive and are not listed. The call rests on the fitted dose curve; in most records, active means well fitted activation curve with a large enough effect; inconclusive means small, poorly fitted or top-dose-only effect, or another doubt; inactive means no such curve, though single readings can be large or run the other way. The list shows a part of the results.

This assay is described as follows: Primary qHTS for Identification of Small Molecule Activators of Huntingtin-Antisense Promoter Activity. Further: nearly all actives have a fitted effect of over 55% in size. The settings on record: HEK293 HTT-AS promoter firefly luciferase reporter, 24 h; series mostly up to 57.5 µM; activity change, positive = activation: at the top concentration. The method, boiled down: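 HEK293 cells carrying firefly luciferase reporters were seeded at 2,500 per well in Opti-MEM and cultured for 24 h. They were then treated with compounds at up to 57.5 uM final for 24 h at 37 degrees C before Dual-Glo luminescence readout.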
With `CCCSC1=NC2(CCN(C(=O)NC3CCCCC3)CC2)N=C1c1ccc(Cl)cc1`, the activity change, positive = activation was inactive: -20.4% [at 11.5 µM, percent change from vehicle, -100% = no light]. Regarding `Cc1cccc(CSc2nc(-c3cccc(C)c3)nc3c2Cc2c(CO)cnc(C)c2O3)c1`, the “activity change, positive = activation” value was inactive: -10.1%. For the compound `COc1ccc(C)cc1NC(=O)COCc1cc(-c2ccc(F)cc2)on1`, the “activity change, positive = activation” value was inactive: 10.7%. For `CC(C)(C)C(=O)OCc1cc(=O)n2nc(C3CC3)sc2n1`, the “activity change, positive = activation” value is inactive: 19.8%. For the compound `Cc1nn(Cc2noc(C(=O)NC(C)c3ccccc3)n2)c(C)c1Br` (stereo not given), the “activity change, positive = activation” value is inactive: -15.6%.

`Cc1ccc(N2CCN(S(=O)(=O)c3c(C)[nH]c(=O)[nH]c3=O)CC2C)cc1` (stereo not given): the “activity change, positive = activation” value was inactive: -11.9%. Regarding `CCCN(CCC)c1nn2c(=O)c(C(=O)NCc3cc(Br)ccc3OC)cnc2s1`, the “activity change, positive = activation” value is inactive: -12.8%. With `CCOC(=O)c1cc(-c2ccccc2)n(CC(=O)Nc2ccc(CC)cc2)c1C`, the “activity change, positive = activation” value is inactive: -18%. Regarding `COc1cc(Cl)c(C)cc1NC(=O)Cn1cc(S(=O)(=O)N2CCC(C)CC2)c2ccccc2c1=O`, the “activity change, positive = activation” value was inactive: -24.2%.

For the compound `CCCCN1CCC(CNC(=O)c2c3n(c4ccccc24)CCCO3)CC1`, the “activity change, positive = activation” value was inactive: -23.5%. On to `Cc1ccc(Cn2c(=O)n(Cc3ccco3)c(=O)c3oc4ccccc4c32)cc1`, for which the “activity change, positive = activation” value was inactive: -8.61%.

As to `C[C@]12CC[C@H]3[C@@H](CCC4=CC(=O)CC[C@@]43C)[C@@H]1CC[C@@H]2C(=O)CO`, the “activity change, positive = activation” value is inactive: -22.1%. For `CCOc1ccc(OCC)c(NC(=O)c2cnc(SC)nc2-c2ccccc2)c1`, the “activity change, positive = activation” value was inactive: -27.1%.

`Cc1ccc(C)c(NC(=O)CSc2nc3c([nH]c4ccccc43)c(=O)n2-c2ccc(F)cc2)c1`: the “activity change, positive = activation” value was inactive: -23.9%. As to `COc1ccc(CC(=O)NCC(c2ccc(Cl)cc2)N2CCOCC2)cc1` (stereo not given), the “activity change, positive = activation” value is inactive: -9.35%. For the compound `Cc1ccc(C)c(Cn2c(=O)n(-c3ccc(Cl)cc3)c(=O)c3c(C)c(C)sc32)c1`, the “activity change, positive = activation” value is inactive: 20.4%.

As to `Cc1ccc(S(=O)(=O)c2nnn3c2nc(NC2CCCCC2)c2sccc23)cc1`, the “activity change, positive = activation” value was inactive: -32.8%. On to `CN(C)S(=O)(=O)c1ccc2c(c1)nnn2CCNC(=O)Nc1ccc(Cl)cc1`, for which the “activity change, positive = activation” value was inactive: -10.7%. Take `Cc1ccc(Cc2cn3cc(-c4ccccc4)nc3s2)cc1`: the “activity change, positive = activation” value was inactive: -31.4%. Take `CC(C)n1cnc2c(NCCCCCCNC(=O)OC(C)(C)C)nc(NCCO)nc21`: the “activity change, positive = activation” value was inactive: -31%. With `CCCCNC(=O)c1ccccc1NC(=O)CN(c1ccccc1)S(=O)(=O)N(C)C`, the “activity change, positive = activation” value is inactive: -12.9%. Under `O=C(CSc1nc(=O)n(Cc2ccco2)c2c1CCC2)Nc1ccccc1C(F)(F)F` stands inactive: -35.9%; under `Cc1ccc(Cl)cc1N1CCN(C(=O)c2cc(S(=O)(=O)N3CCCC3)c[nH]2)CC1`, inactive: -28.7%; under `CCOC(=O)CNC(c1ccccc1)c1cc(Br)ccc1NC(=O)c1cccc(Cl)c1` (stereo not given), inactive: -13.2%. As to `CCc1ccc(NC(=O)C2CCCN(S(=O)(=O)c3ccc(F)cc3)C2)cc1` (stereo not given), the “activity change, positive = activation” value was inactive: -13.5%. Under `CCc1nnc(SCC(=O)N(CC)c2ccccc2)c2cc3oc(C)cc3n12` stands inactive: -11%; under `CC(=O)N1CCCc2cc(S(=O)(=O)N3CCC(C(=O)NCc4ccccc4)CC3)ccc21`, inactive: -14.1%; under `CCN(Cc1ccccc1)C(=O)Cn1c(=O)n(-c2ccc(Cl)cc2)c(=O)c2c(C)c(C)sc21`, inactive: -17.5%. Consider `CCCNC(=O)Cn1c(=O)c2cccn2c2cccnc21`, for which the “activity change, positive = activation” value was inactive: -18.4%. On to `CCCNC(=O)C1Cc2cc(S(=O)(=O)N3CCCCCC3)ccc2N1C(C)=O` (stereo not given), for which the “activity change, positive = activation” value was inactive: 5.58%. Under `CCn1c(C(=O)NCc2ccccc2Br)cc2oc3ccccc3c21` stands inactive: -36.1%; under `CCCn1cnc2cc(NCc3ccccc3OCC)ccc21`, inactive: -5.96%. Under `COC(=O)c1ccc(C(=O)OC)c(NC(=O)c2cc3nc(-c4ccc(C)cc4)cc(C(F)(F)F)n3n2)c1` stands inactive: -4.22% [at 11.5 µM, percent change from vehicle, -100% = no light]. On to `COc1ccc(C2=NS(=O)(=O)N(C)C(C(=O)N(C)Cc3ccccc3)=C2)cc1OC`, for which the “activity change, positive = activation” value is inactive: -22.1%. In the case of `Cc1ccccc1OCc1nc2ccccc2n1Cc1ccccc1Cl` it was inactive: -5.33%. On to `CC(=O)c1ccc(NC(=O)CSc2cn(CC(=O)N(C(C)C)C(C)C)c3ccccc23)cc1`, for which the “activity change, positive = activation” value is inactive: -22.6%. `CCCCN(CC)C(=O)CCNS(=O)(=O)c1ccc2c(c1)c(=O)n(C)c(=O)n2C`: the “activity change, positive = activation” value is inactive: -7.07%. On to `CCS(=O)(=O)N1CCc2cc(C(=O)Nc3cccc(C(C)=O)c3)ccc21`, for which the “activity change, positive = activation” value is inactive: 0.19%. For the compound `Cc1cccc(Nc2ccncc2S(=O)(=O)NC(=O)NC(C)C)c1`, the activity change, positive = activation entry is “inactive”. Consider `CC(C)CCn1c(Oc2ccccc2F)nc2c1c(=O)n(C)c(=O)n2C`, for which the “activity change, positive = activation” value was inactive: -21.3%. As to `CCCOc1cccc(C2c3c(-c4ccccc4O)n[nH]c3C(=O)N2Cc2ccco2)c1` (stereo not given), the “activity change, positive = activation” value is inactive: -32.4%.

Turning to `COc1ccc(C(CNC(=O)c2oc3cc(C)c(Cl)cc3c2C)N2CCCCC2)cc1` (stereo not given), the “activity change, positive = activation” value is inactive: 18.2%. As for `COCCNC(=O)CCc1c(C)n(C)c2cc(-c3cc(OC)c(OC)c(OC)c3)nn2c1=O`, the “activity change, positive = activation” value was inactive: -5.62%.

On to `CC1CCN(S(=O)(=O)c2ccc3nc(NCc4ccccc4)ccc3c2)CC1`, for which the “activity change, positive = activation” value is inactive: -37%. Take `O=C(Cn1nc(-c2ccc(Cl)cc2)c2ccccc2c1=O)Nc1cccc(C(F)(F)F)c1`: the “activity change, positive = activation” value was inactive: -31.1%.
